# Laboratory results from PubChem BioAssay AID651820 (National Center for Advancing Translational Sciences (NCATS), 2012).
# The campaign covered roughly 340,000 compounds. About 12,000 (3.5%) were called active. Inconclusive results, whose numbers are uncertain, are shown with a selection of clear calls. Calls come from the whole dose curve; as a rule, active = well fitted inhibition curve with a large enough effect; inconclusive = small, poorly fitted or top-dose-only effect, or another doubt; inactive = no such curve, though single readings can be large or run the other way. No potency is given beside an inconclusive call; the fits are too rough.
# Experiment: qHTS Assay for Inhibitors of Hepatitis C Virus (HCV)
# Settings: Huh7.5.1 HCVcc-Cre (HCVcc is cell-culture hepatitis C virus) infection, luciferase reporter, 44 h; activity change, negative = inhibition: at 41.8 µM (top of the series)
# In short: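 Compounds are dispensed onto cells plated 4 h earlier at 1,000 per well, with HCVcc-Cre virus (about 0.5 moi) added next. Following 44 h of culture, luminescent signal is measured for 15 sec after 15 min with substrate at room temperature.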
# % is set by controls: 0 for no effect and ±100 for the full control effect; potency is the fitted concentration of half-maximal effect; tags give direction and shape of the fitted curve.
Compound,"activity change, negative = inhibition",Potency
COc1cc(C(=O)NCCc2ccc3c(c2)OCO3)cc(OC)c1OC,inactive: -8.62%,
COc1ccc2oc(C(=O)NCc3ccccc3CN3CCCC3)c(C)c2c1,,"inconclusive [inhibitor, single point]"
COc1cccc(C(=O)OCC(=O)N2CCc3ccccc32)c1OC,,"inconclusive [inhibitor, full curve, poor fit]"
Cc1ccc(N(CC(=O)N2CCc3ccccc32)S(=O)(=O)c2cccs2)cc1,,"inconclusive [inhibitor, single point]"
CC(C)Cn1c(=O)[nH]c(=O)c2c(C(F)(F)F)cc(-c3ccccc3)nc21,,"inconclusive [inhibitor, single point]"
Cc1ccc(OCc2cc(C(=O)NCc3cc(F)ccc3C)no2)cn1,,"inconclusive [inhibitor, single point]"
Fc1cccc(CSc2ccc3nnc(-c4cccnc4)n3n2)c1,inactive: -22.6%,
Cc1cccc(/C=C2\Sc3ccc(C(=O)NCC4CCCO4)cc3N(C)C2=O)c1 (stereo not drawn),,"inconclusive [inhibitor, partial curve]"
O=C(N/N=C/c1cc(Cl)cc([N+](=O)[O-])c1O)c1ccc2c(c1)OCO2,,"inconclusive [inhibitor, single point]"
CNc1snc(C)c1C(=O)OC(C)C(=O)Nc1cccc(OC)c1 (stereo not drawn),,"inconclusive [inhibitor, single point]"
CCOc1ccccc1CNC(=O)CCn1ccc2cc(S(=O)(=O)N3CCCCC3)ccc21,,"inconclusive [inhibitor, partial curve]"
CN(C)S(=O)(=O)c1ccc(N2CCCC2)c(C(=O)NC(c2ccccc2)c2ccccc2)c1,,"inconclusive [inhibitor, partial curve]"
CCN1CCN(c2cc(-c3ccccc3)nc3cc(-c4cccc(F)c4)nn23)CC1,,"inconclusive [inhibitor, partial curve]"
COCCNC(=O)Cn1cc(/C=N/NC(=O)c2ccc(Oc3ccc(O)cc3)cc2)c2ccccc21,inactive: -20.4%,
Cc1cc(-c2ccccc2)nc(N/N=C/c2ccc(O)cc2)n1,,active: 11.2 µM
N#Cc1ccccc1NC(=O)c1ccc(-c2ccccc2Cl)o1,,"inconclusive [inhibitor, partial curve]"
Cc1ccc(S(=O)(=O)Cc2ccc(C(=O)NCc3ccc4c(c3)OCO4)o2)cc1,,"inconclusive [inhibitor, single point]"
COc1ccc2c(c1)[nH]c1c(=O)n(Cc3ccco3)cnc12,,"inconclusive [inhibitor, partial curve]"
